Measurements taken from the supplement of paper PMC3334620.
The full ranking holds about 33,000 sequences; the median of “E-score (-0.5 to 0.5)” is about -0.013, and the highest 2% start at about 0.3. The list shows a part of the results.

biological target: T1, Msn1 (UniProt P22148); assay: PBM E-score (8-mer binding enrichment) (E-score (-0.5 to 0.5)); higher = stronger / more preferred TF binding; most listed sequences are background and not binding sites; settings: protein concentration: 200 nM; construct: GST-full length
T1 sequence: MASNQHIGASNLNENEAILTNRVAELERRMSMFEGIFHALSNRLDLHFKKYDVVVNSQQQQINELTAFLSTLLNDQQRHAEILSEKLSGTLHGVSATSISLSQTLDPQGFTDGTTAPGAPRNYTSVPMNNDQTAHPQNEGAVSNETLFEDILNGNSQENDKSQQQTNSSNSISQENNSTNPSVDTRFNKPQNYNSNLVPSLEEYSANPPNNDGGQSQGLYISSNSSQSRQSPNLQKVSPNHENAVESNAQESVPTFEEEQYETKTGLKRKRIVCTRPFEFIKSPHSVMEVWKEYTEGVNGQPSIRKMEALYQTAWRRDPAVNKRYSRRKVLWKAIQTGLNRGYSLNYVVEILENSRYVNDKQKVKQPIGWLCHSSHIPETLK
Method in brief: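 For each ungapped eight-base word taken together with its reverse complement, the Universal PBM Analysis Suite assigned an E-score. Binding data came from GST-tagged yeast transcription factors, applied at about 100-200 nM, on universal all-10-mer Agilent arrays made double-stranded by primer extension. Fluorescent anti-GST marked bound protein, and scans were normalised with masliner.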

Sequence	PBM E-score
GGAAGGGA	-0.222
ACGGCCGC	0.0164
AGAAGGGA	-0.215
GGAGGTTA	-0.136
CGCGTTTA	0.09
AAGGAGAC	-0.2
CTAATTAC	0.0275
GGTAATAA	0.125
AGAGTCAA	-0.202
AGCAATAT	0.136
CGAAGCCG	-0.0934
ACATGCTA	0.128
AGGTAGCA	-0.36
CATGGGAA	0.0041
CTTGTGGA	0.0651
ATGTACGG	0.108
GATGGTAA	-0.0474
AGTTGGCG	0.0078
GATTATCA	-0.0136
GACAGAGA	0.236
CGACGTCG	-0.0112
CGAAGTCG	0.125
ACCATAGG	-0.0558
AATAAAAA	0.216
GAGTTAGA	-0.188

Sequence	PBM E-score
ACCCATTA	-0.0843
AAGGGGCT	-0.041
CAAGTGTG	-0.0323
GTGCTTGA	-0.0761
CGAACACG	0.0294
CCCACGCG	-0.271
GCGTATCC	-0.037
GGCTTGGA	-0.128
CCGATGCG	-0.112
CGGTACGA	-0.02
CGACCCTA	-0.26
CTTAAATA	0.0257
AGTCGTAT	0.0498
GGTGACCA	0.00095
GGCGGACA	0.273
AATTGCCG	-0.00266
ACTCCCCG	0.0649
GCCAGTTA	0.0128
CATACGAA	0.155
CTTCCCGC	-0.231
GTCCCCTA	0.0141
AGTGAACT	-0.0536
GATAAGGC	0.0376
AAAAGGCG	0.186
CCTAATCC	0.016

Sequence	PBM E-score
AATAAATC	-0.0882
GAGTTGAA	-0.0529
AGAGCGGG	-0.14
CGAAGGCC	-0.126
AGGGCCCA	-0.369
ACCCATCA	-0.164
AACTGGCT	-0.207
ATCGGTGG	-0.218
ATCCGATG	0.0429
CAGAGCAC	-0.208
GATCTGGC	-0.0167
GGGGGCAC	-0.406
GAATGGGC	-0.297
CGCACGCG	-0.165
CCCCTTCC	-0.279
ATTCACAA	0.0966
ACTAAAGG	0.0941
CGACTCAC	-0.129
CATATCCC	0.0863
GGAAGCAC	-0.138
AGGGGAAT	-0.0162
CTAGAGAA	-0.0599
CTTAGAGA	-0.00262
TATTGCAA	0.0856
CGCAAAAG	-0.0449

Sequence	PBM E-score
CGTACCTA	-0.0103
ACTATATG	0.0622
TTAGTGAA	0.0399
CAAGGCCC	-0.266
AGAATCGG	0.144
CAAAAGAC	0.0448
GATGCCCA	0.0579
GAGGATGC	-0.254
AAGCAAGG	-0.0227
AACCTCAG	0.00123
TACCAGGA	0.174
TAAAGTCA	0.162
ATGTAGCA	-0.0326
CGTGATCC	-0.119
CTGGCGCC	-0.138
CACCCTAC	-0.0538
CGGGGAGA	-0.151
CCCTAAAG	-0.178
CTGAGCTC	0.0318
GCATATAA	0.0988
CTCGCTCA	-0.00023
CACATTGC	0.115
ATCGGATA	0.19
CTGCCTTA	-0.22
ATATCTGG	0.045

Sequence	PBM E-score
ACTACGAC	-0.0474
CTTCATTC	-0.0511
CTCCGCAG	-0.0819
ATACGTGG	-0.103
GGTTTGAC	-0.0735
CGTAGAAG	-0.00615
TAAATCCA	0.0101
ACCCCTAA	-0.0913
ACAAACGT	0.244
ACAAAGGT	0.218
ACACACAA	0.0857
AGCTGAGG	-0.105
CGAGGACC	-0.14
CCGGTTCG	-0.0144
CGAGCGCC	-0.146
GATGCAGA	-0.0332
CCTGAACG	-0.104
CTAACGAG	-0.0971
CCAACCGA	0.115
AGGCCCCA	-0.245
CACTAGAC	-0.0823
AGCTCACA	-0.111
ACTGCTAA	-0.122
ATAGTGCA	0.0246
GGATCCTA	-0.128

Sequence	PBM E-score
CCATCCAG	-0.254
CTCGCGGA	0.0586
AAATAGCA	-0.00406
GACATTGA	0.386
ATTTCCAA	0.0478
AGCTTTAT	-0.0293
AGCCATGC	-0.112
AACTTAGA	0.153
AGATGGGG	-0.336
ACGAGCGT	-0.173
CGTCTGGA	-0.0916
AGGACTTG	0.269
GCGAAGGA	-0.217
GTATAGGA	0.00436
AAGTTCCC	-0.153
GCCCCAGC	-0.259
CACCTTCC	-0.0904
TGCTGCCA	-0.196
CCCATCAA	0.0357
AAAGTCTA	0.268
ATTCCACA	0.0598
GAGAACAA	0.0874
ACTGACGC	-0.164
ACGTAGAA	-0.0507
TGAATCAA	0.0824

Sequence	PBM E-score
ATCATCTC	0.022
AAACACCA	-0.0266
GTTCAACA	0.104
AGTTTCCG	0.0551
CAGTCTAG	-0.155
ATTGGGCA	-0.0202
ACGGCCCA	-0.304
ATCGCTGG	-0.122
CTAGGTCA	-0.0235
GGTTCCAC	-0.185
CGCCCGGA	-0.0187
AATCGGCG	-0.0561
TAAGGTCA	-0.0968
CCATAAGG	-0.153
ACGTCGCT	-0.211
CACTGCAA	-0.0467
CCTGTCAG	-0.0618
AAGTAGCA	-0.123
ACTGCGCC	-0.163
ATGGAACC	-0.0583
AGGATTTC	-0.136
ACGGGTCT	-0.309
